Out of some 280,000 compounds screened, about 1,100 (0.39%) were called active. Inconclusive results, whose numbers are uncertain, are shown with a selection of clear calls. Calls come from the whole dose curve; as a rule, active = well fitted inhibition curve with a large enough effect; inconclusive = small, poorly fitted or top-dose-only effect, or effect the other way; inactive = flat fitted curve, though single readings scatter. Potencies of inconclusive entries are left out as doubtful fits.
target: Microtubule-associated protein tau (Homo sapiens) (UniProt P10636); assay: qHTS for Inhibitors of Tau Fibril Formation, Fluorescence Polarization; conditions: K18 P301L tau heparin fibrillization, Alexa594 FP, 6 h; series mostly up to 57.7 µM; activity, negative = inhibition: at the top concentration; note: nearly all actives have a fitted effect of over 55% in size
UniProt P10636, sequence (P10636 whole entry, looked up): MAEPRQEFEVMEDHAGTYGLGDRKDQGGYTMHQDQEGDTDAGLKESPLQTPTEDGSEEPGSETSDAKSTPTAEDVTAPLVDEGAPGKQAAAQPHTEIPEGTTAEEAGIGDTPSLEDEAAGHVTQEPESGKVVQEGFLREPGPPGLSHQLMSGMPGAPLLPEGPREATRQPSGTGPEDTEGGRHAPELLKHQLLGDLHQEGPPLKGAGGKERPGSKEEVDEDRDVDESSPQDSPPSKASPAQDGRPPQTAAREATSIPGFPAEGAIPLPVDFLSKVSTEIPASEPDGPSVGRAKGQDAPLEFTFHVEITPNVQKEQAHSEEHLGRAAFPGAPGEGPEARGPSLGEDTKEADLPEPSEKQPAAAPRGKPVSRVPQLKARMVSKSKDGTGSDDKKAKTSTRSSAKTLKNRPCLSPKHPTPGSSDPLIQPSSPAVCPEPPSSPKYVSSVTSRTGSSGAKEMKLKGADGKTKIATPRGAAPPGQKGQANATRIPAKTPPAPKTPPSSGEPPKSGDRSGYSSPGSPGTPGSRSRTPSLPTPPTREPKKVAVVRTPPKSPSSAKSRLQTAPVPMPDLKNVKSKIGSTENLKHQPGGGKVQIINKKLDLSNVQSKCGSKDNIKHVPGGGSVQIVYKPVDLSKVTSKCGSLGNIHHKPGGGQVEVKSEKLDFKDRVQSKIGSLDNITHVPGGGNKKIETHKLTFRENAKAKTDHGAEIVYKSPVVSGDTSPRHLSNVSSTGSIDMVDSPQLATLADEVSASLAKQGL
Summary of the method: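 Compound effects on tau fibrillization are measured by Alexa 594 fluorescence polarization (ex 555, em 632 nm). K18 P301L tau is used at 15 uM with 0.24 uM labeled tracer, and 20 uM heparin induces aggregation over 6 hr at 37 C.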
% is set by controls: 0 for no effect and ±100 for the full control effect; potency is the fitted concentration of half-maximal effect; tags give direction and shape of the fitted curve.

**Q.** `Cc1cc(C)cc(N2C(=O)NC(=O)/C(=C\C=C\c3ccco3)C2=O)c1` was tested. Which Potency did it give?
**A.** inconclusive [inhibitor, partial curve]

**Q.** For `Cc1cc(N2CCOCC2)ccc1/C=C1\C(=O)NC(=O)N(c2ccccc2)C1=O`, which Potency is on record?
**A.** inconclusive [inhibitor, partial curve, poor fit]

**Q.** With `Cc1c(N=Nc2c(O)[nH]c(=O)[nH]c2=O)c(=O)n(-c2ccccc2)n1C` as the compound, how does the Potency read?
**A.** inconclusive [inhibitor, partial curve, poor fit]

**Q.** `ClC1=C(Cl)C2(Cl)C3C4C=CC(C4)C3C1(Cl)C2(Cl)Cl` (configuration not stated) was tested. Which Potency did it give?
**A.** inconclusive [inhibitor, partial curve]

**Q.** How did the Potency turn out when `Cc1[nH]c2ccc(Cl)cc2c1C1=CCNCC1` was run?
**A.** inconclusive [inhibitor, single point]

**Q.** `C[C@@H]1C[C@H]2OC(=O)C3(CO3)[C@H]2[C@H](O)[C@]2(C)C(=O)C3OC3[C@@H]12` (some centres not stated) was tested. Which Potency did it give?
**A.** inconclusive [inhibitor, partial curve]

**Q.** How did the “activity, negative = inhibition” value turn out when `Cc1oc(-c2ccccc2)nc1CN1C(=O)CN=C(c2ccccc2)c2ccccc21` was run?
**A.** inactive: -0.997%

**Q.** For `NCCCP(=O)(O)CC1CCCCC1`, which Potency is on record?
**A.** inactive

**Q.** For `NC(=O)c1cn(C2OC(CO)C(O)C2O)c2ncnc(N)c12` (configuration not stated), which “activity, negative = inhibition” value is on record?
**A.** inactive: -0.148%

**Q.** For `CCOP(=O)(OCC)C(NC(=O)Nc1ccc(Cl)c(Cl)c1)c1ccccc1` (configuration not stated), which Potency is on record?
**A.** inconclusive [inhibitor, partial curve]

**Q.** How did the “activity, negative = inhibition” value turn out when `C#CCN1C(C)=C(C(=O)CCO)[C@@H](c2cccc(-n3oo3)c2)C(C(=O)OC)=C1C` was run?
**A.** inactive: -2.46%

**Q.** `O=C(c1cc(-c2cccnc2)nc2ccc(Cl)cc12)N1CCC2(CC1)OCCO2` was tested. Which “activity, negative = inhibition” value did it give?
**A.** inactive: 2.93%

**Q.** How did the Potency turn out when `COc1ccc2c3c([nH]c2c1)C(C)=NCC3` was run?
**A.** inactive

**Q.** With `CC1CC(OP(O)(=S)c2ccc(N(C)C)cc2NC(=O)c2cccs2)CC(C)(C)C1` (configuration not stated) as the compound, how does the Potency read?
**A.** inconclusive [inhibitor, single point]

**Q.** For `C=CCn1c(O)c(C(C)=NCc2ccco2)c(=O)[nH]c1=O`, which Potency is on record?
**A.** inconclusive [inhibitor, single point]

**Q.** With `COC(=O)C1C=C2c3cccc4[nH]cc(c34)CC2N(C)C1` (configuration not stated) as the compound, how does the Potency read?
**A.** inconclusive [inhibitor, partial curve]

**Q.** How did the Potency turn out when `O=c1[nH]c(=S)n(C2CC2)c(O)c1C=NCC1CCCO1` (configuration not stated) was run?
**A.** inconclusive [inhibitor, single point]

**Q.** Which Potency does the source give for `Cc1ccc(CN2C3CCCC2CC(NC(=O)Nc2cccc(F)c2)C3)cc1` (configuration not stated) here?
**A.** inconclusive [inhibitor, single point]

**Q.** How did the Potency turn out when `CC(C)Oc1ccc(Cc2c(O)[nH]c(=O)[nH]c2=O)cc1` was run?
**A.** inconclusive [inhibitor, single point]

**Q.** For `CN1C(=O)C(Cc2c[nH]c3ccccc23)C(=O)N(C)C1=O`, which Potency is on record?
**A.** inconclusive [inhibitor, partial curve]

**Q.** With `CCOc1ccc(C(=O)Nc2ccc3nc(SCCOc4ccccc4)sc3c2)cc1` as the compound, how does the Potency read?
**A.** inconclusive [inhibitor, single point]

**Q.** `CSc1ncc(/C=C2/C(=O)NC(=O)N(c3ccc(C(C)C)cc3)C2=O)cn1` was tested. Which Potency did it give?
**A.** inconclusive [inhibitor, single point]

**Q.** With `Cc1ccccc1-n1c(O)c(/C=N/Nc2nc3c(c(=O)n(C)c(=O)n3C)n2C)c(=O)[nH]c1=S` as the compound, how does the Potency read?
**A.** inconclusive [inhibitor, full curve]

**Q.** `CC1NCCC2(O)CCCCC12` (configuration not stated) was tested. Which Potency did it give?
**A.** inconclusive [activator, single point]

**Q.** How did the “activity, negative = inhibition” value turn out when `CC1(C)Cc2c(sc3c2C(=O)NC(c2cccnc2)N3)CO1` (configuration not stated) was run?
**A.** inactive: -6.04%

**Q.** With `CCC(C)N1C(=O)/C(=C/c2ccc3c(c2)CCN3CCCCl)C(=O)NC1=S` (configuration not stated) as the compound, how does the Potency read?
**A.** inconclusive [inhibitor, single point]

**Q.** For `O=C1NC(=O)C(C/C=C/c2ccccc2)C(=O)N1`, which Potency is on record?
**A.** inconclusive [inhibitor, single point]

**Q.** How did the Potency turn out when `CCCNC(=O)c1c(N)n(Cc2ccc3c(c2)OCO3)c2nc3ccccc3nc12` was run?
**A.** inconclusive [inhibitor, partial curve]

**Q.** With `O=C1C(Cl)=C(N2CCCCCC2)C(=O)N1c1ccccc1` as the compound, how does the Potency read?
**A.** inconclusive [inhibitor, single point]

**Q.** With `Cc1cc(C)c(Cn2c(C(=O)O)c(C=O)c3ccccc32)c(C)c1` as the compound, how does the “activity, negative = inhibition” value read?
**A.** inactive: -0.519%

**Q.** `CCOC(=O)c1ccc(N2C(=O)c3n[nH]c(-c4cccs4)c3C2c2ccc(Cl)cc2Cl)cc1` (configuration not stated) was tested. Which Potency did it give?
**A.** inconclusive [inhibitor, partial curve]

**Q.** For `CC(=O)NC1N=C(C)N(c2ccccc2)C1=O` (configuration not stated), which Potency is on record?
**A.** inconclusive [inhibitor, partial curve]

**Q.** For `Cc1ccc(NC(=O)Cn2c(=O)oc3cc(S(=O)(=O)N4CCCCCC4)ccc32)cc1Cl`, which Potency is on record?
**A.** inconclusive [inhibitor, partial curve]

**Q.** For `CN(C)c1ccc(C=C2C(=O)NC(=S)NC2=O)cc1[N+](=O)[O-]`, which Potency is on record?
**A.** inconclusive [inhibitor, single point]

**Q.** `CN1C(=O)C(=Cc2ccccc2Oc2ccc(Cl)cc2)C(=O)N(C)C1=O` was tested. Which “activity, negative = inhibition” value did it give?
**A.** inactive: 0.205%

**Q.** Which “activity, negative = inhibition” value does the source give for `Cn1c(O)c(C2=NNC(c3ccc(Cl)cc3)C2)c(=O)n(C)c1=O` (configuration not stated) here?
**A.** inactive: 1.13%

**Q.** Which Potency does the source give for `Cc1ccc(S(=O)(=O)n2[nH]c(=O)cc2NC(=O)c2cccs2)cc1` here?
**A.** inconclusive [inhibitor, single point]

**Q.** With `O=C1NC(=O)N(c2ccccc2)C(=O)/C1=C/c1ccoc1` as the compound, how does the “activity, negative = inhibition” value read?
**A.** inactive: -9.26%

**Q.** Which Potency does the source give for `Cc1c(C=C2C(=O)N(C)C(=O)N(C)C2=O)c(=O)n(-c2ccccc2)n1C` here?
**A.** inconclusive [inhibitor, single point]

**Q.** For `Cc1cc(C)cc(NC(=O)Cn2cc(C(=O)c3cccs3)c3ccccc32)c1`, which Potency is on record?
**A.** inconclusive [inhibitor, partial curve]

**Q.** How did the Potency turn out when `C=C1C2CCC3[C@@](CC[C@@H]4C(C(=O)O)CC(OC5OC(CO)C(OS(=O)(=O)O)C(OS(=O)(=O)O)C5OC(=O)CC(C)C)C[C@]34C)(C2)C1O` (some centres not stated) was run?
**A.** inconclusive [inhibitor, single point]

**Q.** How did the Potency turn out when `C/C(=N\Nc1cccc2ccccc12)c1c(O)n(Cc2ccccc2)c(=O)[nH]c1=O` was run?
**A.** inconclusive [inhibitor, single point]

**Q.** For `CC(C)OC(=O)c1c(N)n(Cc2ccco2)c2nc3ccccc3nc12`, which “activity, negative = inhibition” value is on record?
**A.** inactive: -7.72%

**Q.** With `Cc1cccc(Cn2cccc(C(=O)Nc3ccc(F)cc3F)c2=O)c1` as the compound, how does the Potency read?
**A.** inconclusive [inhibitor, partial curve]

**Q.** How did the Potency turn out when `Cc1ccc2c(c1)C1CN(C)CCC1N2C(=O)c1ccccc1NS(=O)(=O)c1ccc(F)cc1C` (configuration not stated) was run?
**A.** inconclusive [inhibitor, single point]

**Q.** `Cc1cc(NC(=O)COC(=O)c2c(C)nn(Cc3ccccc3Cl)c2C)no1` was tested. Which Potency did it give?
**A.** inconclusive [inhibitor, single point]

**Q.** For `COc1cc(CC2C(=O)N(C)C(=O)N(C)C2=O)ccc1OCc1ccccc1`, which Potency is on record?
**A.** inconclusive [inhibitor, single point]

**Q.** Which “activity, negative = inhibition” value does the source give for `Cc1ccc(OCC(=O)N2CCN(CCc3ccncc3)CC2)cc1` here?
**A.** inactive: 2.07%

**Q.** Which Potency does the source give for `COc1ccc2c(c[n+](C)c3c4cc5c(cc4ccc23)OCO5)c1OC` here?
**A.** inconclusive [inhibitor, full curve]

**Q.** For `Cc1cc(C=C2C(=O)N(C)C(=S)N(C)C2=O)c(C)n1-c1cccnc1`, which “activity, negative = inhibition” value is on record?
**A.** inactive: 8.37%

**Q.** With `COc1cccc(CN2CCN(C(=O)COc3ccc4ccccc4c3)CC2)c1` as the compound, how does the “activity, negative = inhibition” value read?
**A.** inactive: -1.48%

**Q.** With `N#Cc1c(/N=C/C2C(=O)NC(=S)NC2=O)sc2c1CCCC2` as the compound, how does the “activity, negative = inhibition” value read?
**A.** inactive: -2.87%

**Q.** How did the Potency turn out when `C=C1C(=O)O[C@@H]2C[C@@H](C)[C@H]3C=CC(=O)[C@]3(O)C[C@@H]12` was run?
**A.** inconclusive [inhibitor, partial curve]

**Q.** With `CN(C)c1ccc(NC(=O)Oc2ccccc2)cc1` as the compound, how does the Potency read?
**A.** inconclusive [inhibitor, partial curve]

**Q.** How did the Potency turn out when `CCN1C[C@@]2(OC(=O)c3ccccc3NC(C)=O)CCC(OC)[C@@]34C5CC6C(OC)C[C@@](O)(C(CC23)[C@@H]14)C5(O)C6OC` (some centres not stated) was run?
**A.** inconclusive [inhibitor, single point]

**Q.** How did the “activity, negative = inhibition” value turn out when `O=[N+]([O-])c1cc([As](=O)(O)O)ccc1O` was run?
**A.** inactive: 2.01%

**Q.** With `CC(C)N1C(=S)SC(C)(C)C1n1oc(=O)n(-c2cccc(Cl)c2)c1=O` (configuration not stated) as the compound, how does the Potency read?
**A.** inconclusive [inhibitor, partial curve]

**Q.** With `CCN(CC)c1ccc(N=Cc2c(O)n(-c3cc(OC)ccc3OC)c(=O)[nH]c2=O)cc1` as the compound, how does the Potency read?
**A.** inconclusive [inhibitor, partial curve]

**Q.** Which Potency does the source give for `CN1C(=O)NC(=O)/C(=C/c2ccc([N+](=O)[O-])o2)C1=O` here?
**A.** inconclusive [inhibitor, partial curve]

**Q.** For `COC(=O)c1ccc(C(C(=O)NC2CCCCC2)N(CCN2CCOCC2)C(=O)Cc2cccs2)cc1` (configuration not stated), which Potency is on record?
**A.** inconclusive [inhibitor, partial curve, poor fit]

**Q.** How did the “activity, negative = inhibition” value turn out when `CC1(C)N(O)C2CCCCC2N1O` (configuration not stated) was run?
**A.** inactive: -8.56%

**Q.** For `Cn1c(O)c(/C=C2\N=c3ccccc3=C2CCNC(=S)NC2CC2)c(=O)n(C)c1=O`, which Potency is on record?
**A.** inconclusive [inhibitor, partial curve, poor fit]

**Q.** Which Potency does the source give for `Cc1nccc2c1[nH]c1ccccc12` here?
**A.** inconclusive [inhibitor, full curve]

**Q.** For `Cc1ccc(OCC(=O)Nc2ccc(Cl)cc2C(=O)c2ccccc2)cc1C`, which “activity, negative = inhibition” value is on record?
**A.** inactive: -1.17%

**Q.** Which Potency does the source give for `CC[n+]1c(/C=C/C=C/c2ccc(N(C)C)cc2)sc2ccccc21` here?
**A.** active: 6.31 µM

**Q.** `COc1ccccc1-c1[se]c2ccccc2c1I` was tested. Which Potency did it give?
**A.** inconclusive [inhibitor, single point]

**Q.** Which Potency does the source give for `C=CCn1c(O)c(C(C)=NCCC2=CCCCC2)c(=O)[nH]c1=O` here?
**A.** inconclusive [inhibitor, single point]

Source: PubChem BioAssay AID1468 (National Center for Advancing Translational Sciences (NCATS), 2008)
